Test results taken from publication PMC10318468.
No constants are given. Whether binding was seen depends on the method and setting. Binding seen in cells or lysates may run through a third protein. Some entries that bind do so weakly or less than the wild type. Where a sequence is shown, tags or fusion partners need not be part of it. Each block holds one molecule with its values, some of them ahead of it.

Protein sequences, listed by entry. Tags and fused reporters are not part of them. Lines headed by an entry give the natural chain unless they say otherwise; changes in a name come on top. Residues count along the entry.
UniProt Q9Y3Z3: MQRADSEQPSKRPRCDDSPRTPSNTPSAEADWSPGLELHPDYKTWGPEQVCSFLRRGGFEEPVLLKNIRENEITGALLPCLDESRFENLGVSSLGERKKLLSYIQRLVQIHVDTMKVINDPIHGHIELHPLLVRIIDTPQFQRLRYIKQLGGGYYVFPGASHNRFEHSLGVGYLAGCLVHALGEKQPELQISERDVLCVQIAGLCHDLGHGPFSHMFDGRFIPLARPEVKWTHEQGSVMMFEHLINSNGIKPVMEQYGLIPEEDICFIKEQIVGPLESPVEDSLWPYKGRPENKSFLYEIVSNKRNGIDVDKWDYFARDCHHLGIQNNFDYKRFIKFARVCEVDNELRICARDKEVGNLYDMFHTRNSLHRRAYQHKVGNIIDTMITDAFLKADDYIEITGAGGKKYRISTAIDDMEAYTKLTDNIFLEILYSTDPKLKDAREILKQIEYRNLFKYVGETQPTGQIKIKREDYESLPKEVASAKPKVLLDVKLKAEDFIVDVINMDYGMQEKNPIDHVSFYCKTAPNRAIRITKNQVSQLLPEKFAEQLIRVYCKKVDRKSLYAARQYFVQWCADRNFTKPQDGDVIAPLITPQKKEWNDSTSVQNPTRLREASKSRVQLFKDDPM
HA-SAMHD1 HD domain (M3): residues 164-316 of Q9Y3Z3

Legend:
Myc-IKKα (human) = target: T1, Myc-IKKα (human) (UniProt O15111); experiment: co-IP; HEK293T cotransfected with FLAG-TAK1, increasing amounts of HA-SAMHD1 and Myc-IKKα or Myc-IKKβ; FLAG antibody for IP; Western blot
T1 sequence: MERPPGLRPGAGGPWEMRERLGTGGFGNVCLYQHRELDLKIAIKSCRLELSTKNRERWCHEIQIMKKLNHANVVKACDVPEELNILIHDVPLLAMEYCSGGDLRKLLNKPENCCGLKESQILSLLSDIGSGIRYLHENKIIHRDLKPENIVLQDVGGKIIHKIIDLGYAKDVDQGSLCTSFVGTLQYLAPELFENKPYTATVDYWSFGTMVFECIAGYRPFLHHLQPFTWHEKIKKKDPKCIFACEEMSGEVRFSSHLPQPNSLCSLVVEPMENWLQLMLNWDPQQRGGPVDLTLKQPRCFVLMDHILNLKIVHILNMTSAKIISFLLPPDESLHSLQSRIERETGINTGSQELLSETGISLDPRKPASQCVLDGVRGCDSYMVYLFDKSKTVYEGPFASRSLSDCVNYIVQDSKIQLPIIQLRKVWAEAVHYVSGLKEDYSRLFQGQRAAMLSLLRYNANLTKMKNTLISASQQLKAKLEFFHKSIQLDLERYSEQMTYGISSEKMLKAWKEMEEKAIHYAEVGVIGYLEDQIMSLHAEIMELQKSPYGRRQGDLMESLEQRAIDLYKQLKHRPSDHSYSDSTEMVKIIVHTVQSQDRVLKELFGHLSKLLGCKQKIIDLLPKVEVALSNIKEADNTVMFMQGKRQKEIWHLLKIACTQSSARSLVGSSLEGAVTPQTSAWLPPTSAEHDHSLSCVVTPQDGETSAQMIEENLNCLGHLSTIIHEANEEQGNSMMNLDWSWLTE

[1] = target: T2, FLAG-tagged IKKα wildtype (human) (UniProt O15111); experiment: co-IP; HEK293T cotransfected for 48 h with HA-SAMHD1 (WT or truncated) and FLAG-IKK; FLAG antibody and Dynabeads protein G, IgG as negative control; washed with 50 mM Tris-HCl pH 7.4, 150 mM NaCl, 1% NP-40, 0.25% sodium deoxycholate; Western blot
T2 sequence: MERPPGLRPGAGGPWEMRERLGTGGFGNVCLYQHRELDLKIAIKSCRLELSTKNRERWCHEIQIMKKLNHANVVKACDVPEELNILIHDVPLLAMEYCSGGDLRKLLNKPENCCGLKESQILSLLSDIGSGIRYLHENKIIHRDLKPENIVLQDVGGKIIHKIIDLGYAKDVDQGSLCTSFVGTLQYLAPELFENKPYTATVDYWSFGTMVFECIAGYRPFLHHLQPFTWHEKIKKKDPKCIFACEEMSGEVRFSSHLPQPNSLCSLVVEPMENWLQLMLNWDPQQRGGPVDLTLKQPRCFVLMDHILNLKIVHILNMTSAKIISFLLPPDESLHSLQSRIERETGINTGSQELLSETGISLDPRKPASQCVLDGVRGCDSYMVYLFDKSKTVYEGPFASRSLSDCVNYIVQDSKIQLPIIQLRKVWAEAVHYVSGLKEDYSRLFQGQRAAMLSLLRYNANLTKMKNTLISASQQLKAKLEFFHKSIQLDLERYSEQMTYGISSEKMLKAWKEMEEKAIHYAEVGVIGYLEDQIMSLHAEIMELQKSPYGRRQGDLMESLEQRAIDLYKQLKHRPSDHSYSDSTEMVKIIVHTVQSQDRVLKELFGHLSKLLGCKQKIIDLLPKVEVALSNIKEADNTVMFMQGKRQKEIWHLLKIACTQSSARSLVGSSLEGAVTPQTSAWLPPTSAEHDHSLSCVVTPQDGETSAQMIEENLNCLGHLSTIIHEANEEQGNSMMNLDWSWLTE

[2] = target: T3, FLAG-tagged IKKβ wildtype (human) (UniProt O14920); experiment: as above
T3 sequence: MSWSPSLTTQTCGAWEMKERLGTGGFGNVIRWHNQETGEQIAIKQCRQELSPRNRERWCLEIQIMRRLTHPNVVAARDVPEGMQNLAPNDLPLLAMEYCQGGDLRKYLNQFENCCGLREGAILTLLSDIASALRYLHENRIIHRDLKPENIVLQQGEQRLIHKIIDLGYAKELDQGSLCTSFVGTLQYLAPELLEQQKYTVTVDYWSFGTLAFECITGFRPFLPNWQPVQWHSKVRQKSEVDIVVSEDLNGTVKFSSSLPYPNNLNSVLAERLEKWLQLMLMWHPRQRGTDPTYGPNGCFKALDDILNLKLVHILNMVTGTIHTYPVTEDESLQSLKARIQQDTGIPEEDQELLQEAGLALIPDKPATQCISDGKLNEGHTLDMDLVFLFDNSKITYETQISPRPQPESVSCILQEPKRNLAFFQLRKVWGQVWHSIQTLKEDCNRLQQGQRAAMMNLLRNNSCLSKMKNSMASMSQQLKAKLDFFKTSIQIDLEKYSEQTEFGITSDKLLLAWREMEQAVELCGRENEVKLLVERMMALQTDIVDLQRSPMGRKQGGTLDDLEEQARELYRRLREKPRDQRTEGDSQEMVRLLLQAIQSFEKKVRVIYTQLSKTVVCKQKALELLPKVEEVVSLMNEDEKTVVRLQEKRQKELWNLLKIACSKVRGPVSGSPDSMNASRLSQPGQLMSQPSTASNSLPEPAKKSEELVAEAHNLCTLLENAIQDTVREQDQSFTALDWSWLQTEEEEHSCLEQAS

HA-SAMHD1 HD domain (M3) = HA-SAMHD1 HD domain (M3) (UniProt Q9Y3Z3); experiment: co-IP; HEK293T cotransfected for 48 h with HA-SAMHD1 (WT or HD domain M3) and FLAG-IKK (WT or truncated); HA antibody and Dynabeads protein G, IgG as negative control; washed with 50 mM Tris-HCl pH 7.4, 150 mM NaCl, 1% NP-40, 0.25% sodium deoxycholate; Western blot
[3] = target: HA-tagged SAMHD1 wildtype (UniProt Q9Y3Z3); experiment: as above
[4] = target: T4, FLAG-TAK1 (transforming growth factor β-activated kinase 1), O43318; experiment: co-IP; HEK293T cotransfected with FLAG-TAK1, increasing amounts of HA-SAMHD1 and Myc-IKKα or Myc-IKKβ; FLAG antibody for IP; Western blot; conditions: remark: other sources report otherwise
T4 chain: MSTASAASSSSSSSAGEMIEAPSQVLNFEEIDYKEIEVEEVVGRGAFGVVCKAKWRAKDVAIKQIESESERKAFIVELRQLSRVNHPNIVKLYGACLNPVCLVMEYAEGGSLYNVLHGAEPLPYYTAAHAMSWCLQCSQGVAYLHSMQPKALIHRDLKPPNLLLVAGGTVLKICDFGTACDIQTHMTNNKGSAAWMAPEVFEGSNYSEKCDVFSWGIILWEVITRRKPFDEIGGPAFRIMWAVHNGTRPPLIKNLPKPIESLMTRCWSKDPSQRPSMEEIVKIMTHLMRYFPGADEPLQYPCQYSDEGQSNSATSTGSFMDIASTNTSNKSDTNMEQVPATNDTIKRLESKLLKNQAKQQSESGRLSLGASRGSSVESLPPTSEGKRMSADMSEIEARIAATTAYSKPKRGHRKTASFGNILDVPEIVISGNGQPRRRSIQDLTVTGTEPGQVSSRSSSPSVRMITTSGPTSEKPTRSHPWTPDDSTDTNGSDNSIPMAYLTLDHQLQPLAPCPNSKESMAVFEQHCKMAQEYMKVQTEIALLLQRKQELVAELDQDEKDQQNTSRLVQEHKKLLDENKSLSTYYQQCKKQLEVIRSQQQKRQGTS

Molecule: HA-tagged SAMHD1 wildtype (from UniProt Q9Y3Z3 1-626)
binding (Myc-IKKα (human)): binds
binding [1]: binds
binding [2]: binds

B2: p-IKKβ (active), phosphorylated IKKβ in cells transfected with FLAG-IKKβ (protein, UniProt O14920-1 1-756)
chain: MSWSPSLTTQTCGAWEMKERLGTGGFGNVIRWHNQETGEQIAIKQCRQELSPRNRERWCLEIQIMRRLTHPNVVAARDVPEGMQNLAPNDLPLLAMEYCQGGDLRKYLNQFENCCGLREGAILTLLSDIASALRYLHENRIIHRDLKPENIVLQQGEQRLIHKIIDLGYAKELDQGSLCTSFVGTLQYLAPELLEQQKYTVTVDYWSFGTLAFECITGFRPFLPNWQPVQWHSKVRQKSEVDIVVSEDLNGTVKFSSSLPYPNNLNSVLAERLEKWLQLMLMWHPRQRGTDPTYGPNGCFKALDDILNLKLVHILNMVTGTIHTYPVTEDESLQSLKARIQQDTGIPEEDQELLQEAGLALIPDKPATQCISDGKLNEGHTLDMDLVFLFDNSKITYETQISPRPQPESVSCILQEPKRNLAFFQLRKVWGQVWHSIQTLKEDCNRLQQGQRAAMMNLLRNNSCLSKMKNSMASMSQQLKAKLDFFKTSIQIDLEKYSEQTEFGITSDKLLLAWREMEQAVELCGRENEVKLLVERMMALQTDIVDLQRSPMGRKQGGTLDDLEEQARELYRRLREKPRDQRTEGDSQEMVRLLLQAIQSFEKKVRVIYTQLSKTVVCKQKALELLPKVEEVVSLMNEDEKTVVRLQEKRQKELWNLLKIACSKVRGPVSGSPDSMNASRLSQPGQLMSQPSTASNSLPEPAKKSEELVAEAHNLCTLLENAIQDTVREQDQSFTALDWSWLQTEEEEHSCLEQAS
modifications: phosphorylated, detected with the Phospho-IKKα/β (Ser176/180) antibody
binding (HA-SAMHD1 HD domain (M3)): binds

The next lines start with the values.

binding (HA-SAMHD1 HD domain (M3)): binds
binding [3]: binds
B1: FLAG-tagged IKKβ wildtype (protein, UniProt O14920-1 1-756)
chain: MSWSPSLTTQTCGAWEMKERLGTGGFGNVIRWHNQETGEQIAIKQCRQELSPRNRERWCLEIQIMRRLTHPNVVAARDVPEGMQNLAPNDLPLLAMEYCQGGDLRKYLNQFENCCGLREGAILTLLSDIASALRYLHENRIIHRDLKPENIVLQQGEQRLIHKIIDLGYAKELDQGSLCTSFVGTLQYLAPELLEQQKYTVTVDYWSFGTLAFECITGFRPFLPNWQPVQWHSKVRQKSEVDIVVSEDLNGTVKFSSSLPYPNNLNSVLAERLEKWLQLMLMWHPRQRGTDPTYGPNGCFKALDDILNLKLVHILNMVTGTIHTYPVTEDESLQSLKARIQQDTGIPEEDQELLQEAGLALIPDKPATQCISDGKLNEGHTLDMDLVFLFDNSKITYETQISPRPQPESVSCILQEPKRNLAFFQLRKVWGQVWHSIQTLKEDCNRLQQGQRAAMMNLLRNNSCLSKMKNSMASMSQQLKAKLDFFKTSIQIDLEKYSEQTEFGITSDKLLLAWREMEQAVELCGRENEVKLLVERMMALQTDIVDLQRSPMGRKQGGTLDDLEEQARELYRRLREKPRDQRTEGDSQEMVRLLLQAIQSFEKKVRVIYTQLSKTVVCKQKALELLPKVEEVVSLMNEDEKTVVRLQEKRQKELWNLLKIACSKVRGPVSGSPDSMNASRLSQPGQLMSQPSTASNSLPEPAKKSEELVAEAHNLCTLLENAIQDTVREQDQSFTALDWSWLQTEEEEHSCLEQAS

binding [4]: binds
B3: Myc-IKKα, O15111 1-745 (protein)
chain: MERPPGLRPGAGGPWEMRERLGTGGFGNVCLYQHRELDLKIAIKSCRLELSTKNRERWCHEIQIMKKLNHANVVKACDVPEELNILIHDVPLLAMEYCSGGDLRKLLNKPENCCGLKESQILSLLSDIGSGIRYLHENKIIHRDLKPENIVLQDVGGKIIHKIIDLGYAKDVDQGSLCTSFVGTLQYLAPELFENKPYTATVDYWSFGTMVFECIAGYRPFLHHLQPFTWHEKIKKKDPKCIFACEEMSGEVRFSSHLPQPNSLCSLVVEPMENWLQLMLNWDPQQRGGPVDLTLKQPRCFVLMDHILNLKIVHILNMTSAKIISFLLPPDESLHSLQSRIERETGINTGSQELLSETGISLDPRKPASQCVLDGVRGCDSYMVYLFDKSKTVYEGPFASRSLSDCVNYIVQDSKIQLPIIQLRKVWAEAVHYVSGLKEDYSRLFQGQRAAMLSLLRYNANLTKMKNTLISASQQLKAKLEFFHKSIQLDLERYSEQMTYGISSEKMLKAWKEMEEKAIHYAEVGVIGYLEDQIMSLHAEIMELQKSPYGRRQGDLMESLEQRAIDLYKQLKHRPSDHSYSDSTEMVKIIVHTVQSQDRVLKELFGHLSKLLGCKQKIIDLLPKVEVALSNIKEADNTVMFMQGKRQKEIWHLLKIACTQSSARSLVGSSLEGAVTPQTSAWLPPTSAEHDHSLSCVVTPQDGETSAQMIEENLNCLGHLSTIIHEANEEQGNSMMNLDWSWLTE
